Reference: PMC4336329 (PLoS ONE, 2015)
Out of some 310,000 compounds screened, about 14,000 (4.5%) showed an effect of 50% or more. Effects have a minus sign here. Some of the results follow.

What follows are molecules tested against human ether-à-go-go-related gene (hERG) potassium channel (human, UniProt Q12809) (assay: primary screen, population patch clamp on CHO cells stably expressing hERG).
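Also: peak tail current of the secondary pulse compared with the same well before compound.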

Chain of human ether-à-go-go-related gene (hERG) potassium channel (Q12809 whole entry, looked up): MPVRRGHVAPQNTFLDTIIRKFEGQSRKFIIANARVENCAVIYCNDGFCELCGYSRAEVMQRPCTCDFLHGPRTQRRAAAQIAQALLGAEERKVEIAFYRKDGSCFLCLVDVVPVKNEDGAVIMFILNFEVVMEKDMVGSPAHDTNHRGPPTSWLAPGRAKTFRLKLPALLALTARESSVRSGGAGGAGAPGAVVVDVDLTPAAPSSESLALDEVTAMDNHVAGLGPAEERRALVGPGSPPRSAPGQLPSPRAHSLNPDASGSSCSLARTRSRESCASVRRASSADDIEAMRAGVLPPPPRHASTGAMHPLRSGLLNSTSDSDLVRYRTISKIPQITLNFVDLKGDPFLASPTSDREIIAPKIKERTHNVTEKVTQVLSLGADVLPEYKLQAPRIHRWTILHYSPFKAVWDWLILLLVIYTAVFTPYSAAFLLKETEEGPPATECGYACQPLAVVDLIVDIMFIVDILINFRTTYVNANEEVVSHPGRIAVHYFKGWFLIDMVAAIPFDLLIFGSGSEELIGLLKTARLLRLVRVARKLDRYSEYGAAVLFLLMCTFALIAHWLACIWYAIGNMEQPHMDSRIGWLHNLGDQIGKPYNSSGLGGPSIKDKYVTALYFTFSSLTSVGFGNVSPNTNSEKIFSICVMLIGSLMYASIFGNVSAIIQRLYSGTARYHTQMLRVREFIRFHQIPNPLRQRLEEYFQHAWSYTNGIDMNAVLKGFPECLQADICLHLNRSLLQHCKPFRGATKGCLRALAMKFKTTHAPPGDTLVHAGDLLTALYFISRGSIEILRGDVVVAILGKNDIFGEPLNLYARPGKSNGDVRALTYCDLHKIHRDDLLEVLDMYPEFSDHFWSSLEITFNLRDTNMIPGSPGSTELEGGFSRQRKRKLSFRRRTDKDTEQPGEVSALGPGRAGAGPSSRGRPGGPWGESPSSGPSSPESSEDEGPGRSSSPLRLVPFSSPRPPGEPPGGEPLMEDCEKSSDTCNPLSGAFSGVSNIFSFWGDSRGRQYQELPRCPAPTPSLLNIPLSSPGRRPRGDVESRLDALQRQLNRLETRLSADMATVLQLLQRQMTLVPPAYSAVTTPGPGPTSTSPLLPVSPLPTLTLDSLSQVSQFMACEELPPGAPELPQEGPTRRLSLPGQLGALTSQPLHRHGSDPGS

Compared with `CCOc1ccc(NC(=O)CCNS(=O)(=O)c2ccc3c(c2)c(=O)n(C)c(=O)n3C)cc1`, `CCc1cccc(NC(=O)Cn2c(=O)oc3cc(S(=O)(=O)N4CCOCC4)ccc32)c1` is higher in “hERG current change (%, negative = inhibition) at 10uM” value: 17.2% for the first, 17.4% for the second.

Compared with `Cc1ccc(S(=O)(=O)NCC(=O)N2CCOCCOCCOCC2)cc1`, `CC(C)NC(=O)COc1ccc(S(=O)(=O)N2CCCC2)cc1` is higher in “hERG current change (%, negative = inhibition) at 10uM” value: 1.35% for the first, 15.8% for the second.

Going from `CCc1ccccc1NC(=O)C1CCCC1` to `CC1CCCC(C)N1C(=O)CSc1nc2ccccc2s1` (stereo not shown), the “hERG current change (%, negative = inhibition) at 10uM” value falls from 12.5% to -13.3%.

First: COc1ccc(CCc2nnc(CCC(=O)NCc3ccc4ncccc4c3)o2)cc1
Second: O=C(NCc1cccnc1)c1ccc(COc2ccc(Cl)cc2Cl)o1
The “hERG current change (%, negative = inhibition) at 10uM” value of the first is higher: -1.73% for the first, -18.1% for the second.

Compared with `NC(=O)c1ccccc1OCC(=O)N1CCCc2ccccc21`, `CC1(C)Cc2cccc(OCC(=O)Nc3ccccc3N3CCOCC3)c2O1` is lower in “hERG current change (%, negative = inhibition) at 10uM” value: 14.5% for the first, -10.8% for the second.

First: CCOc1cc(/C=C2/SC(=Nc3ccccc3)N(Cc3cccnc3)C2=O)ccc1OCC#N
Second: O=C(COc1ccccc1-c1ccccc1)N/N=C/c1cccnc1
The “hERG current change (%, negative = inhibition) at 10uM” value of the first is higher: 7.86% for the first, -52.8% for the second.

Going from `O=C(Cn1cnc2ccccc2c1=O)NC1CCS(=O)(=O)C1` (stereo not shown) to `CCn1c(SCC(=O)NC2CCS(=O)(=O)C2)nnc1-c1ccccc1` (stereo not shown), the “hERG current change (%, negative = inhibition) at 10uM” value falls from 8.42% to 5.49%.

First: COc1ccccc1CNC(=O)CN(C)Cc1ccc(SC)cc1
Second: COCC(C)NC(=O)Cc1ccc(F)cc1 (stereo not shown)
The “hERG current change (%, negative = inhibition) at 10uM” value of the first is lower: -50.8% for the first, 22.6% for the second.

Going from `Cc1ccc2c(c1)C=CC(C)N2C(=O)c1ccccc1` (stereo not shown) to `CC(=O)N1c2ccc(S(=O)(=O)N3CCCC(C(=O)NCc4ccccc4)C3)cc2CC1C` (stereo not shown), the “hERG current change (%, negative = inhibition) at 10uM” value rises from -7.62% to 13.7%.

Compared with `CC1C(c2ccccc2)=[N+]([O-])C2(CCCCC2)N1O` (stereo not shown), `CC(=O)c1sc(NC(=O)CN2C(=O)NC3(CCCC3)C2=O)nc1-c1ccccc1` is lower in “hERG current change (%, negative = inhibition) at 10uM” value: 9.34% for the first, -1.43% for the second.

Compared with `COC(=O)c1cc(C(=O)OCC(=O)NNC(=O)c2cccs2)cc([N+](=O)[O-])c1`, `COC(=O)C1=CN(c2ccc(Cl)cc2)C=C(C(=O)OC)C1c1ccc([N+](=O)[O-])cc1` is higher in “hERG current change (%, negative = inhibition) at 10uM” value: -10.9% for the first, 16.2% for the second.

First: NC(=O)C1=C[C@@H](c2ccc3c(c2)OCO3)C[C@@H](OCCCCO)O1
Second: COc1ccc(Cl)cc1C(=O)NNC(=S)NC1CCCCC1
The “hERG current change (%, negative = inhibition) at 10uM” value of the first is lower: 2.96% for the first, 20.2% for the second.

Going from `COc1ccc(NC(=O)Nc2cccc3ccccc23)cc1OC` to `COc1cc(CO)ccc1OCC(=O)Nc1ccc(Br)cc1`, the “hERG current change (%, negative = inhibition) at 10uM” value falls from 10.4% to -11.2%.

Compared with `CC(C)Cn1c(N)c(C(=O)COC(=O)c2cccc(Cl)c2)c(=O)n(C)c1=O`, `CCOC(=O)c1ccccc1NC(=O)COC(=O)C(CC(C)C)NC(N)=O` (stereo not shown) is higher in “hERG current change (%, negative = inhibition) at 10uM” value: -6.08% for the first, 4.62% for the second.

Compared with `CCCN1Cc2cccc(C(=O)NC(C)c3cccs3)c2C1=O` (stereo not shown), `Cc1nn(-c2ccccc2)c(C)c1/C=N/NC(=O)c1cccs1` is lower in “hERG current change (%, negative = inhibition) at 10uM” value: -12.7% for the first, -24.9% for the second.

Compared with `Cc1ccccc1OC(C)c1nc(-c2ccccc2)no1` (stereo not shown), `S=c1nc(NCCc2ccccc2Cl)c2ccccc2[nH]1` is higher in “hERG current change (%, negative = inhibition) at 10uM” value: 0.522% for the first, 20% for the second.

First: CCN1CCN(S(=O)(=O)c2ccc(Cl)c(C(=O)N(C)Cc3cccc(Cl)c3Cl)c2)CC1
Second: Cn1c(=O)oc2cc(S(=O)(=O)N3CCC(N4CCCCC4)CC3)ccc21
The “hERG current change (%, negative = inhibition) at 10uM” value of the first is lower: -61.3% for the first, 3.47% for the second.

Compared with `C(=N\n1cnnc1)/c1cccn1-c1ccccc1`, `CC(C)C(O)(c1ccccc1)C(CN1CCOCC1)c1ccccc1.Cl` (stereo not shown) is higher in “hERG current change (%, negative = inhibition) at 10uM” value: -17.5% for the first, -1.52% for the second.

First: O=C(/C=C/c1cccc([N+](=O)[O-])c1)N1CCN(c2ccccn2)CC1
Second: O=C(c1ccncc1)N1CCCC(N2CCN(c3ccc(F)cc3)CC2)C1 (stereo not shown)
The “hERG current change (%, negative = inhibition) at 10uM” value of the first is higher: -41.2% for the first, -44.6% for the second.

Going from `COc1cccc(C(=O)NNC(=O)C(=O)N2CCCCC2)c1` to `COc1ccc(OC)c(/C=C/C(=O)N2C(=O)c3cccc(N)c3C2=O)c1`, the “hERG current change (%, negative = inhibition) at 10uM” value falls from 23.6% to 6.52%.

Going from `CCCC(=O)Oc1c(S(=O)(=O)c2ccc(C)cc2)c(C)nn1C(C)(C)C` to `CCOc1cc(S(=O)(=O)NCc2cccnc2)c(C)cc1C`, the “hERG current change (%, negative = inhibition) at 10uM” value rises from -4.08% to 9.71%.

Compared with `COc1ccc(-n2c(C)cc(C(=O)CSc3ccc(NC(C)=O)cc3)c2C)cc1`, `COc1ccc(/C=C/C(=O)Nc2cc(C)on2)cc1` is lower in “hERG current change (%, negative = inhibition) at 10uM” value: 16.1% for the first, 4.72% for the second.

First: CCOCc1cnc(C)nc1NCC(=O)c1c(C)[nH]c2ccccc12
Second: COCCOC(=O)C1=C(C)NC(=O)NC1/C=C/c1ccccc1 (stereo not shown)
The “hERG current change (%, negative = inhibition) at 10uM” value of the first is higher: 8.49% for the first, -5.86% for the second.

Going from `Cc1cc(Cl)ccc1NC(=S)NCCN1CCOCC1` to `O=C(CSc1ccc(Br)cc1)Nc1ccccc1N1CCOCC1`, the “hERG current change (%, negative = inhibition) at 10uM” value falls from -0.212% to -2.27%.

Compared with `C[N+]1(C)C2CCC1CC(OC(=O)c1ccccc1)C2.[Br-]` (stereo not shown), `CC(C(=O)NCc1ccccc1)N1C(=O)C2CC=C(Cl)CC2C1=O` (stereo not shown) is lower in “hERG current change (%, negative = inhibition) at 10uM” value: 5.57% for the first, 2.89% for the second.

Going from `Cc1occc1C(=O)Nc1cccc([N+](=O)[O-])c1C` to `Cc1ccc(-c2csc(NC(=O)CCNC(=O)c3ccc(Cl)cc3)n2)cc1`, the “hERG current change (%, negative = inhibition) at 10uM” value rises from -3.3% to 14.5%.

Going from `CCNC(=O)CC1S/C(=N/N=C(\C)c2ccccc2)NC1=O` (stereo not shown) to `O=C(c1ccccc1)C(O)(Cc1ccccc1)c1ccccc1` (stereo not shown), the “hERG current change (%, negative = inhibition) at 10uM” value rises from -1.63% to 0.054%.

Going from `O=C(COc1ccc(Cl)cc1)N(Cc1ccc(F)cc1)C1CCS(=O)(=O)C1` (stereo not shown) to `CCc1[nH]nc(C(=O)N2CCCC(Nc3ccc(C(C)C)cc3)C2)c1C` (stereo not shown), the “hERG current change (%, negative = inhibition) at 10uM” value rises from -63.3% to 3.25%.

Compared with `O=C1c2ccccc2C(=O)N1CCSc1ncn[nH]1`, `COC1=NS(=O)(=O)c2ccccc21` is lower in “hERG current change (%, negative = inhibition) at 10uM” value: 19.7% for the first, 7.18% for the second.
